B1: OR4K15 (parent)
chain: GUUAACGGUCAUAGGCCAUGGAAACUAGGAGCACCAUUUCGCUGCCAGUGAAGAAAUGAACAAAGAAAAUCUGGGCCAGGCAGGCAUCAAAAGAAAUAGUCUUGCGCUCAACCAGAAAGUCUGUAAUCAUUUUAAGGGUA

Read counts are not given, so values of variants with three or more changes are uncertain.

The variants in this data set derive from B1. Kind of data set: self-cleavage, relative activity (ratio to wild type); higher = more cleavage; in vitro, sequencing; the parent is a self-cleaving ribozyme.
Consider U9C A18G A86G A129G, for which the self-cleavage came to 2.08. The figure for C10U U57C G65U A90G A116G is 0.27.

On to A11G A13G U39C A78G A94U C107G A116G, for which the self-cleavage was found to be 0.03. The figure for U9C U37C C61U A67G U102C is 1.4; for C10U A33U U43C U49C A86G it is 0.37. The figure for U9C U37C A126G is 1.84; for U9C U57G U139A it is 1.31. Turning to U9C U12C C35U A118G U120C, the self-cleavage amounted to 0.15. The figure for C10U A69G U70C A78G A94G is 0.11; for U9C U26A U57A A66C A114U U120A it is 0.05. The figure for C10A A11G G79A C105U U127A is 0.03; for U9C A30G A59G it is 0.99. The figure for A11G A24G A140G is 1.63. Consider U9G U49A U108C A126G, for which the self-cleavage was 0.

U9G U37C G75A: the self-cleavage amounted to 0.16. Turning to A11G A22U A90G, the self-cleavage is 0.77. With U9C A60G U102C, the self-cleavage came out at 1.74.

Regarding U9C A68G A92G U132C A140G, the self-cleavage was found to be 1.79.

On to A11C U12G A22G A92G U108C U131G, for which the self-cleavage was 0. Turning to U9C A23G A24G A129G, the self-cleavage was determined as 0.76. The figure for U9C A33U A117G is 2.93; for A11G A27U U97C it is 0.97. The figure for A11G A24G A117G is 0.82; for U9G A95G U103C A126G it is 0.18. For the variant U9C U102A U108C, the self-cleavage was determined as 0.02.

In the case of U9C U26C A59G A117G, the self-cleavage was found to be 1.66.

U9C A13G A22U A59U U72A A95G: the self-cleavage was 0. The figure for U9C U39C A55G U87C A96G is 0.38; for U9C U70C A82G A95G A111U it is 0.09.

With U9C A23G U49C, the self-cleavage is 0.83.

As to U9C U49G U108C, the self-cleavage is 0.03.

As to U9C A52G A69G A111G, the self-cleavage turned out to be 0.04. Regarding U9C A13G A36G A98G, the self-cleavage stood at 0.59. The figure for A11G A27U A62G is 0.45. On to A11G A18G A78G, for which the self-cleavage is 0.14. In the case of U9C A18U C61U A95G it was 1.52; in that of A11G A33U A95G, 0.98; in that of U9C A27G U122G, 2.06. For the variant U9C U19C U72A A78G A89G, the self-cleavage is 0.33. The figure for U9C A63G U108C is 0.02; for U9C A13G A64G A78U A118U it is 0.31. In the case of U9C C35U U100C it was 1.86; in that of A11G A23G G50U A55G A98G U124C, 0.23.

Consider U9C A60C U130C, for which the self-cleavage was determined as 1.91. The figure for U9C U49C U103C is 1.39; for U9C A86G A117G U124C it is 0.67.

Turning to U9C U37C A90G, the self-cleavage stood at 1.8. The figure for U9C A30U A69G is 1.63; for A11G A24G A86U U97C U139C it is 0.97. The figure for U9C A18G A94G is 1.88.

Turning to U9C A68G A92G U100A G106A U122C, the self-cleavage amounted to 0.01.

With A11G A27G U57G, the self-cleavage came out at 0.91. In the case of C10U U49C A60U A89U it was 1.17.

Consider U9C A89G A94G, for which the self-cleavage turned out to be 1.2.

Regarding U9C A54U G104A, the self-cleavage came to 0.05. For the variant U9C A23G G73U, the self-cleavage came out at 0.23. As for A11C U37C A82G A116G, the self-cleavage amounted to 0.13. Consider U9G A23G A90U, for which the self-cleavage came out at 0.37. In the case of C10A A52G A62G A94G A98G U127C it was 0.88. For the variant U9C A22G C42A, the self-cleavage is 2.07. In the case of U9C C32U G84U it was 0.75; in that of U9C A30G A96G, 1.38. In the case of U9C A23G A94U A117G, the self-cleavage is 1.69.

With U9C A66G U72A U139C, the self-cleavage was determined as 0.31. In the case of A11G A27G A33G A116G it was 0.21; in that of U9C A91G A94G, 0.66; in that of U9C A60G A66G A94G U108A, 0.03. Regarding A11G A30G A96G, the self-cleavage came out at 0.68. As to A11G A33U A36G A67G U132C, the self-cleavage was found to be 0.87. With C10U A51U U103C C128U, the self-cleavage was determined as 0.65. The figure for U9C A22G C88U U132C is 1.05. With U9C A23G A51G A55G U100C C113A, the self-cleavage turned out to be 0.02. In the case of A11G A24G U38C A94U C128A it was 0.35.

With U9C A18G U37C U120A U132C, the self-cleavage turned out to be 1.8.

Take A11G A18G A52U U132C: the self-cleavage was found to be 0.44. As for U9C A23G A55G, the self-cleavage is 0.38. In the case of U9G A54G A90G U100C C105U A126G it was 0.07; in that of U9C A23G A96U, 1.38; in that of U9G A11G A18U A24G A36C U57C A59G A111G, 0.07.

With A11G A27G A62U, the self-cleavage turned out to be 0.98. In the case of U9C U39C U87C A111G G136A it was 0.03; in that of U9C C16U A51U A89G U127C, 0.99; in that of U9C A52G A60G A111G, 0.09.

For U9C A63G A69U A114U, the self-cleavage is 0.14. In the case of U9C A56G A91G it was 1.09. In the case of U9C U38C A51G it was 1.98; in that of A11G A23G A62G A66G U87A A111G U120C U131C, 0. The figure for U9C U19A A55G A67G is 0.29; for U9C U38C A64G C76U it is 0.12; for U9C A52G A55G U70C A82U A110G it is 0.2. As to U9C A22U A117G, the self-cleavage worked out at 2.25. In the case of C10U A92G A96G it was 1.93; in that of A11C A47G A51G A62G U124C U127C, 0.38. The figure for U9C A86G A118U is 0.82; for U9C G21A U108C it is 0.04. Consider U9C C46U U87C, for which the self-cleavage is 2.12.

Turning to U9C U43A A129G, the self-cleavage worked out at 2.05. On to U9C A24G A60G A69G A86G U120C G137A, for which the self-cleavage stood at 0.64.

Regarding U9C U12A A62G U102A U130C, the self-cleavage amounted to 1.03. Regarding U9C U39C A52G A62G A82G, the self-cleavage was 0.65. In the case of U9C A54U A78U it was 0.38. In the case of U9C A23U U37C A110G U131C it was 0.13; in that of U9C A47U U49C, 1.17; in that of C10U A62G U131C, 0.92. In the case of U9C A60G A86G G119A U130A it was 2.21. For the variant U9C A51G A92G U100C, the self-cleavage came out at 2.01. For the variant U9C U57C A114U A116G, the self-cleavage is 0.01. In the case of U9C A51G A118G U130C U133C it was 0.4; in that of C10A A47G G123A, 0.62. In the case of U9C U49C U122C it was 0; in that of A11C A55U U72C A110G U122C, 0.05; in that of U9C U72A A110G, 0.06. Consider A11G A30G A140G, for which the self-cleavage came to 0.54. Turning to U9C A59U U103C, the self-cleavage was determined as 0.98. Regarding U9C A82G A95U A110G, the self-cleavage turned out to be 0.05. The figure for U9C U26C A36G U130C is 0.91; for U9C U43C A64G C88G it is 1.18. In the case of U9C A23G A90G A114U it was 0.13; in that of U9C U87C A117G U122C, 2.25; in that of A11C A23G A62G, 0.69. As to U9C A22G U87C A92U, the self-cleavage came out at 0.83. The figure for U9C A22C A33G U57C is 0.52; for A11G A23G A56G A111G U132C it is 0.03; for U9C U19C A56G A94G it is 0.8. The figure for U9C A56G A82G is 0.36; for C10U G41U A51G A54G A55G A59U U70C it is 0.09; for U9C A36G A92G it is 1.29.

Consider U9C A117G A118G U139A, for which the self-cleavage amounted to 1.53. Turning to U9C U12A G74C A96G, the self-cleavage was 0.53.

Consider A11G A24C A54G A68G A89G, for which the self-cleavage was determined as 0.92.

Regarding U9C A55G A59G U120C, the self-cleavage is 1.65. In the case of U9C A33G U139C, the self-cleavage was 1.31. As to U9C A47U U57C A68U A98U, the self-cleavage was determined as 1.23. The figure for A11C A67G A135G is 1.33. The figure for C10A C77U A78U U131C is 1.06; for U9C A51G G106A A117U U139A it is 0.01; for U9C A24G G73A it is 0.23. As for U9C A51U A95G U103C, the self-cleavage came out at 1.32. The figure for U9C U37C A62G A89G A96C is 1.59; for U9C A24G A52G A118G it is 0.53; for C10U U87C A118G it is 0.34. In the case of U9C A22G A30G U130C it was 1.21; in that of U9C U38C A95G U102C U120C U130A, 1.65.

For the variant U9C U39C A78G A118G, the self-cleavage was determined as 0.

With A11G A30U A51G A66G, the self-cleavage was 0.88.

On to U9C A30U C45A A78G U120C A140G, for which the self-cleavage is 0.09. The figure for U9C U43C U49A A63U A90C A98U is 1.56. The figure for A11C A62U U103C A114U is 0.16; for U9C A91U A110G U131C it is 0.07. For A11C A82G G84C, the self-cleavage worked out at 0.1. Take U9C A11U A23U A94U: the self-cleavage came out at 1.84.

For the variant U9C A56G U70G A90G U103C, the self-cleavage is 0.44. With U9C A54G A63G, the self-cleavage was found to be 2.01.

Turning to U9C A95G U108A, the self-cleavage is 0. In the case of U9C A18G U132C it was 1.06; in that of A11G A27G U100A U102C, 1.78; in that of U9C G74U U120C, 0.09. In the case of U9C U130C A135G it was 1.25; in that of A11C A117U U120A, 1.22. In the case of U9C A89G U102C it was 2.62.

Consider A11C A69G A86G, for which the self-cleavage is 0. The figure for C10U U19C A22G A23G U38C A59G U100C U120A is 2.13; for U9C A66G A82G it is 0.69; for A11C A125C U132C it is 1.1. With U9G A125G U132A, the self-cleavage came out at 0.39. The figure for U9C A11U A51G A52G A95G U127A is 2.26; for A11C A116G U124C it is 0.37.

For the origin of these results see the RNAGym collection of RNA variant scans (doi:10.7554/elife.90254).
